Drawing on the antibiotic and cytotoxicity screens of Wong et al. (2023), this text covers cytotoxicity call and growth inhibition call for 28 molecules.

This is one part of the list.

For one assay, the system named is HSkMC. Put plainly: cytotoxicity call (relative viability < 0.9). The note with it: 10 µM.
The next assay deals with HepG2. Put plainly: cytotoxicity call (relative viability < 0.9). The note with it: 10 µM.
A further assay relates to S. aureus RN4220. Put plainly: growth inhibition call (relative growth <= 0.2). The note with it: 50 µM.

As to `CN1CCN(c2nc3c(c(=O)[nH]c(=O)n3C)n2CC(=O)c2ccc(Cl)cc2)CC1`, the cytotoxicity call in the assay with HSkMC and in the assay with HepG2 was “inactive” throughout. Also, the growth inhibition call in the assay on S. aureus RN4220 was “inactive”.

Turning to `CC(C)CCC[C@@H](C)[C@H]1CC[C@H]2[C@@H]3CCC4=C/C(=N/O)CC[C@]4(C)[C@H]3CC[C@]12C`, the cytotoxicity call in the assay on HSkMC and in the assay on HepG2 was “inactive” in each case. In addition, in the assay on S. aureus RN4220, the growth inhibition call was “inactive”.

With `C[C@H]1CN([C@@H](C)CO)C(=O)c2cc(NS(=O)(=O)c3ccc(F)cc3)ccc2O[C@H]1CN(C)S(=O)(=O)c1ccccc1`, the cytotoxicity call in the assay with HSkMC and in the assay with HepG2 was “inactive” each time. In addition, the growth inhibition call in the assay with S. aureus RN4220 was “inactive”.

Regarding `Cc1cc(S(C)(=O)=O)c(S(C)(=O)=O)cc1C(=O)NC(=N)N`, the cytotoxicity call with HSkMC and in the assay with HepG2 was “inactive” in each case. The growth inhibition call in the assay on S. aureus RN4220 is “inactive”.

Consider `Cc1noc(C)c1NC(=O)Nc1ccc2c(c1)C(=O)N([C@H](C)CO)C[C@@H](C)[C@H](CN(C)Cc1ccc3c(c1)OCO3)OCCCC[C@H](C)O2`, for which the cytotoxicity call in the assay with HSkMC and in the assay with HepG2 was “inactive” each time. For the same molecule, in the assay with S. aureus RN4220, the growth inhibition call is “inactive”.

Turning to `Cc1noc(C)c1S(=O)(=O)Nc1ccc2c(c1)CC(=O)N([C@@H](C)CO)C[C@@H](C)[C@@H](CN(C)S(=O)(=O)c1ccccc1)O2`, the cytotoxicity call in the assay on HSkMC and in the assay with HepG2 was “inactive” in each case. In the assay on S. aureus RN4220, the growth inhibition call was “inactive”.

In the case of `C[C@@H]1CN([C@@H](C)CO)C(=O)c2ccccc2-c2ccccc2CO[C@H]1CN(C)Cc1ccccc1C(F)(F)F`, the cytotoxicity call in the assay with HSkMC and in the assay with HepG2 was “inactive” each time. In the assay on S. aureus RN4220, the growth inhibition call is “active”.

`COc1ccc(NC(=O)N(C)C[C@H]2Oc3ccc(NS(C)(=O)=O)cc3CC(=O)N([C@H](C)CO)C[C@H]2C)cc1`: the cytotoxicity call in the assay with HSkMC and in the assay on HepG2 was “inactive” each time. In addition, the growth inhibition call in the assay on S. aureus RN4220 is “inactive”.

For `CC[C@H]1CN(C(=O)c2cnccn2)N1C`, the cytotoxicity call with HSkMC and in the assay on HepG2 was “inactive” in each case. For the same molecule, the growth inhibition call in the assay with S. aureus RN4220 was “inactive”.

Consider `COc1cccc(-c2ccc3c(c2)O[C@@H](CN(C)Cc2cncnc2)[C@H](C)CN([C@H](C)CO)S3(=O)=O)c1`, for which the cytotoxicity call with HSkMC and with HepG2 was “inactive” in each case. Moreover, the growth inhibition call with S. aureus RN4220 was “inactive”.

On to `C[C@H]1CN([C@@H](C)CO)C(=O)c2cc(C#CC3(O)CCCC3)cnc2O[C@@H]1CN(C)C(=O)C1CCOCC1`, for which the cytotoxicity call in the assay on HSkMC and with HepG2 was “inactive” each time. Besides, the growth inhibition call in the assay on S. aureus RN4220 is “inactive”.

As for `CC(C)NC(=O)N(C)C[C@@H]1Oc2ccc(NC(=O)c3ccncc3)cc2CC(=O)N([C@H](C)CO)C[C@H]1C`, the cytotoxicity call in the assay on HSkMC and with HepG2 was “inactive” throughout. Further, in the assay on S. aureus RN4220, the growth inhibition call was “inactive”.

Turning to `C[C@@H]1CN([C@@H](C)CO)S(=O)(=O)c2ccc(Br)cc2O[C@@H]1CN(C)S(=O)(=O)c1ccc(F)cc1`, the cytotoxicity call in the assay with HSkMC and in the assay on HepG2 was “inactive” in each case. Further, the growth inhibition call in the assay with S. aureus RN4220 is “inactive”.

Turning to `Cc1noc(C)c1NC(=O)Nc1ccc2c(c1)CC(=O)N([C@@H](C)CO)C[C@H](C)[C@H](CN(C)Cc1ccc(C(=O)Nc3ccccc3N)cc1)O2`, the cytotoxicity call in the assay on HSkMC and in the assay with HepG2 was “inactive” in each case. The growth inhibition call in the assay on S. aureus RN4220 was “inactive”.

`CO[C@H]1CN(C)C(=O)c2ccc(NS(=O)(=O)CC(F)(F)F)cc2OC[C@@H](C)N(C(=O)NC(C)C)C[C@@H]1C`: the cytotoxicity call in the assay on HSkMC and with HepG2 was “inactive” throughout. Further, the growth inhibition call in the assay on S. aureus RN4220 is “inactive”.

Take `C[C@@H]1CN([C@@H](C)CO)C(=O)c2cc(NC(=O)C3CC3)ccc2O[C@H]1CN(C)Cc1ccc(C(=O)O)cc1`: the cytotoxicity call in the assay on HSkMC and in the assay on HepG2 was “inactive” each time. Also, the growth inhibition call in the assay on S. aureus RN4220 is “inactive”.

As for `C[C@H]1CN([C@@H](C)CO)C(=O)c2cccc(NC(=O)C3CCOCC3)c2O[C@H]1CN(C)C(=O)Nc1ccccc1`, the cytotoxicity call with HSkMC and with HepG2 was “inactive” throughout. Further, the growth inhibition call in the assay on S. aureus RN4220 is “inactive”.

As for `CC(C)(C)OC(=O)N1CC(=O)C1`, the cytotoxicity call in the assay on HSkMC and with HepG2 was “inactive” throughout. Moreover, in the assay on S. aureus RN4220, the growth inhibition call was “inactive”.

Regarding `C[C@H](CO)N1C[C@H](C)[C@H](CN(C)S(=O)(=O)c2cn(C)cn2)Oc2ncc(-c3ccccc3)cc2C1=O`, the cytotoxicity call in the assay with HSkMC and in the assay with HepG2 was “inactive” each time. The growth inhibition call in the assay with S. aureus RN4220 was “inactive”.

`COc1ccc(NC(=O)Nc2ccc3c(c2)C(=O)N([C@@H](C)CO)C[C@H](C)[C@H](CN(C)Cc2ccc(C(=O)O)cc2)OCCCC[C@@H](C)O3)cc1`: the cytotoxicity call in the assay on HSkMC (human skeletal muscle cells) and with HepG2 was “inactive” in each case. For the same molecule, in the assay on S. aureus RN4220, the growth inhibition call is “inactive”.

In the case of `C[C@H]1CN([C@@H](C)CO)C(=O)Cc2cc(NC(=O)CCCN(C)C)ccc2O[C@H]1CN(C)S(=O)(=O)c1ccccc1`, the cytotoxicity call in the assay with HSkMC and in the assay with HepG2 was “inactive” in each case. Besides, the growth inhibition call in the assay with S. aureus RN4220 was “inactive”.

As for `O=C(CCCCCCC(=O)Nc1ccc([C@H]2O[C@@H](CSc3ccncc3)C[C@@H](c3ccccc3)O2)cc1)NO`, the cytotoxicity call with HSkMC and in the assay on HepG2 was “inactive” throughout. Besides, the growth inhibition call with S. aureus RN4220 was “inactive”.

Consider `CC(C)NC(=O)N(C)C[C@@H]1Oc2cc(C#Cc3ccc(F)cc3)ccc2S(=O)(=O)N([C@@H](C)CO)C[C@H]1C`, for which the cytotoxicity call with HSkMC and in the assay with HepG2 was “inactive” throughout. In addition, in the assay with S. aureus RN4220, the growth inhibition call is “inactive”.

`COc1ccc(-n2c(C)cc(CN)c2C)cc1`: the cytotoxicity call with HSkMC and in the assay with HepG2 was “inactive” in each case. Moreover, the growth inhibition call in the assay with S. aureus RN4220 was “inactive”.

For the molecule `CCCC#Cc1ccc2c(c1)O[C@@H](CN(C)S(=O)(=O)c1cccc(OC)c1)[C@H](C)CN([C@H](C)CO)S2(=O)=O`, the cytotoxicity call in the assay with HSkMC and in the assay with HepG2 was “inactive” each time. Moreover, the growth inhibition call in the assay on S. aureus RN4220 is “inactive”.

`C[C@H]1NC(=O)COC12CCN(C(=O)c1cnccn1)CC2`: the cytotoxicity call in the assay with HSkMC and in the assay with HepG2 was “inactive” in each case. Also, the growth inhibition call with S. aureus RN4220 was “inactive”.

As for `C[C@H]1CN([C@@H](C)CO)C(=O)c2cc(-c3ccc(C(=O)N(C)C)cc3)cnc2O[C@H]1CN(C)C(=O)c1ccncc1`, the cytotoxicity call in the assay with HSkMC and in the assay on HepG2 was “inactive” throughout. The growth inhibition call in the assay on S. aureus RN4220 was “inactive”.

For `COc1ccc(S(=O)(=O)N(C)C[C@H]2OCCCC[C@H](C)Oc3ccc(NS(=O)(=O)c4ccc(Cl)cc4)cc3C(=O)N([C@@H](C)CO)C[C@@H]2C)cc1`, the cytotoxicity call in the assay with HSkMC and in the assay with HepG2 was “inactive” each time. In the assay with S. aureus RN4220, the growth inhibition call was “inactive”.
